Source: PubChem BioAssay AID1347120 (National Center for Advancing Translational Sciences (NCATS), 2019)
Hit rate of the full screen: of about 390,000 compounds, about 930 (0.24%) were called active. The inconclusive results got no clear call from the source; some entries with a clear call stand among them for comparison. Calls follow the shape of the dose curve; as a rule, active = well fitted activation curve with a large enough effect; inconclusive = small, poorly fitted or top-dose-only effect; inactive = no such curve, though single readings can be large or run the other way. Potencies beside an inconclusive call are fits to weak or partial responses and may not hold up.

Experiment: qHTS for Suppressors of FUS Proteinopathy: Primary screen using FUS-linked yeast assay; also: nearly all actives have a fitted effect of over 55% in size;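 as to growth rescue (activation): plate controls were DMSO vehicle for no effect and reference control for full effect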
Conditions: S. cerevisiae FUS-expressing, OD600, 24 h; Potency: growth rescue; growth rescue (activation): at 76.6 µM (top of the series)
Method in brief: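 Toxicity suppression screen in FUS-yeast. Cells induced with 2% galactose, starting OD 0.005, treated 24hr at 30C with compounds at multiple final concentrations; growth by OD600.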
Potency is read from the fitted curve at half-maximal effect; tags tell the direction and shape of the fitted curve.

Row | SMILES | Potency | growth rescue (activation)
1 | COc1ccc(C(=O)NCCn2cc(SCC(=O)Nc3ccc4c(c3)OCCO4)c3ccccc32)cc1OC | inconclusive: 28.2 µM [activator, single point] | –
2 | CSCCC(NC(=O)c1ccc(C(C)(C)C)cc1)C(=O)OCC(=O)N1CCCC1=O (stereo not drawn) | inconclusive: 50.1 µM [activator, single point] | –
3 | Cc1cc(F)ccc1S(=O)(=O)Nc1ccc(C(=O)N2CCCCCC2)cc1 | – | inactive: 20.5%
4 | COc1ccc(-c2cc3nc(NCC4CCCCC4)n(C)c(=O)c3s2)cc1OC | – | inactive: -5.39%
5 | Cn1c(C(=O)O)cc2cc(Oc3ccccc3)ccc21 | – | inactive: -7.26%
6 | CC(Oc1ccc(C#N)cc1)C(=O)NC1CCCC1 (stereo not drawn) | – | inactive: -17.1%
7 | CCN(Cc1ccccc1)C(=O)CCCN1C(=O)COc2ccc(C)cc21 | – | inactive: 29.5%
8 | Cc1cc(NC(=O)CSCC(=O)OCC(=O)Nc2cc(C)c(C)cc2[N+](=O)[O-])no1 | inconclusive: 31.6 µM [activator, partial curve, poor fit] | –
9 | Cc1nc2ccn(Cc3ccco3)c(=O)c2cc1C(=O)NCc1ccc(F)cc1 | – | inactive: 1.48%
10 | O=c1ccn(-c2cccc(C(F)(F)F)c2)nc1-c1ccn(-c2ccccc2F)n1 | inconclusive: 39.8 µM [activator, single point] | –
11 | CCN(C(=O)c1cc(S(=O)(=O)N2CCc3ccccc32)cn1C)c1ccccc1 | inconclusive: 35.5 µM [activator, single point] | –
12 | Nc1nc(Nc2ccc(Cl)cc2)n[nH]1 | inconclusive: 31.6 µM [activator, partial curve, poor fit] | –
13 | CCCCCCCCN1C(=O)[C@@H](CC(=O)NCCCOC)C[C@@]2(C(=O)OC)C1=C[C@H](C(C)C)O[C@@H]2C1CC1 | inconclusive: 31.6 µM [activator, partial curve, poor fit] | –
14 | CCOC(=O)c1c(C)[nH]c(/C(C)=N/O)c1C | – | inconclusive: 60.1% [activator]
15 | COc1cc(Br)cc(CNc2ccc(F)c([N+](=O)[O-])c2)c1O | inconclusive: 50.1 µM [activator, single point] | –
16 | C=CCn1nc(C(=O)Nc2ccc(OC)cc2)cc1-c1sc(NC(=O)c2ccccc2)nc1C | inconclusive: 15.8 µM [activator, partial curve, poor fit] | –
17 | Nc1ccc2c(c1Br)Cc1ccccc1-2 | – | inactive: -1.74%
18 | CCn1cc(S(=O)(=O)c2cccc(C)c2)c(=O)c2cc(F)c(N3CCN(c4ccccc4)CC3)cc21 | – | inactive: 7.54%
19 | CCOc1ccc(C(=O)OCCN(C)C)cc1 | – | inactive: -23.9%
20 | COCCOC(=O)C1=C(C)N(Cc2ccccc2)C(=O)NC1c1cccc(OC)c1OC (stereo not drawn) | inconclusive: 20 µM [activator, single point] | –
21 | COc1ccc2c(c1)c1nnc(SCC(=O)Nc3ccccc3F)nc1n2C | – | inactive: -15.3%
22 | NC(=S)N/N=C/c1ccccc1OC(=O)/C=C/c1ccccc1 | inconclusive: 15.8 µM [activator, partial curve] | –

Row | SMILES | Potency | growth rescue (activation)
23 | CCN(C(=O)CSc1nc2n[nH]c(C)c2c(=N)n1-c1cccc(OC)c1)c1cccc(C)c1 | inconclusive: 31.6 µM [activator, single point] | –
24 | COc1ccc(-c2ccc(CCC(=O)O)n2-c2ccc(Cl)cc2C)cc1 | inconclusive: 8.91 µM [activator, partial curve, poor fit] | –
25 | O=C1c2ccccc2C2=Nc3ccccc3SC(c3ccccc3F)C12 (stereo not drawn) | inconclusive: 31.6 µM [activator, partial curve, poor fit] | –
26 | CCOC(=O)c1cccc(NC(=O)CCc2ccccc2)c1 | inconclusive: 6.31 µM [activator, single point] | –
27 | CCn1c(SCc2cccc(F)c2)nc2c(c1=O)SCC2 | – | inactive: 4.3%
28 | CN(C(=O)CSc1nc2ccc(NC(=O)COc3ccccc3)cc2s1)c1ccccc1 | inconclusive: 22.4 µM [activator, partial curve, poor fit] | –
29 | Cc1ccc(S(=O)(=O)N2CCC(C(=O)Nc3ccc4c(c3)COC4=O)CC2)cc1 | inconclusive: 28.2 µM [activator, partial curve, poor fit] | –
30 | COc1ccc(C(=O)CSc2nnc(-c3cccnc3)n2-c2ccc(C)cc2)cc1 | inconclusive: 15.8 µM [activator, partial curve] | –
31 | OC(c1ccccc1)(c1ccccc1)C1CCN(CCCOc2cccc(OC(F)(F)F)c2)CC1 | inconclusive: 12.6 µM [activator, partial curve] | –
32 | CC(C)(C)C(=O)NC1CCCCN(Cc2cccc(C(F)(F)F)c2)C1=O (stereo not drawn) | – | inactive: 4.7%
33 | CCCCOCCCNC(=O)N[C@@H](CCSC)C(=O)OC | – | inconclusive: 54.1% [activator]
34 | CCc1nc2c(OCc3ccc(Cl)cc3Cl)cccn2c1N(C)C(=O)c1ccccc1F | inconclusive: 28.2 µM [activator, partial curve, poor fit] | –
35 | Cc1ccc(-n2c(SCC(=O)NCc3ccc4c(c3)OCO4)nnc2-c2cccnc2)c(C)c1 | inconclusive: 31.6 µM [activator, single point] | –
36 | CCc1ccc(NS(=O)(=O)c2ccc3[nH]cc(C(=O)N(C)Cc4ccco4)c(=O)c3c2)cc1 | inconclusive: 50.1 µM [activator, partial curve, poor fit] | –
37 | C/C=C/c1ccc(O)c(OC)c1 | – | inactive: -23%
38 | CCOC(=O)c1cc(C)n(CC2CCC(C(=O)Nc3ccc(C(=O)OC)cc3)CC2)c1C (stereo not drawn) | – | inactive: 7.08%
39 | COCC(C)NC(=O)C1CC(c2cccc(Br)c2)=NO1 (stereo not drawn) | – | inconclusive: 52.1% [activator]
40 | Cc1ccc([N+](=O)[O-])cc1NC(=O)CN(C(=O)c1ccccc1Cl)C1CCCCC1 | inconclusive: 39.8 µM [activator, single point] | –
41 | Cc1ccccc1CNC(=O)Nc1ccc2c(c1)N(C)C(=O)c1ccccc1S2 | inconclusive: 5.01 µM [activator, partial curve, poor fit] | –
42 | C[C@H](c1ccccc1)N1C[C@H](COCc2ccccc2)Oc2cc(N3CCC[C@@H]3CO)ccc2S1(=O)=O | inconclusive: 22.4 µM [activator, single point] | –
43 | C#CCOCCOCCOCCNc1nc(N2CCN(C(=O)CCCCCCCCCCNC(=O)[C@H](CCC(=O)O)n3cc(CCCCCN)nn3)CC2)nc(N2CCN(C(=O)CCCCCCCCCCNC(=O)[C@@H]([C@H](C)O)n3cc(C)nn3)CC2)n1 | active: 12.6 µM | –
